Measured values as given in PubChem BioAssay (Tox21).
Where “and” joins values, the source holds several entries; their conditions need not be identical. Equal values may be shown once. Inconclusive means that the source gave no clear call. Such entries were picked first, then a sample of the others. For part of these data: Where the call is inconclusive, the potency comes from a doubtful curve fit. Calls of active or inactive are those of the source. Unless noted, the call rests on the fitted dose curve; in most records, active means well fitted curve in the direction sought with a large enough effect in the repeat runs; inconclusive means weak or mixed curves; inactive means no such curve, though single readings can be large; an effect the other way counts as inactive or inconclusive.

What was measured:
[1] = qHTS assay for small molecule agonists of the p53 signaling pathway (AID 651631; calls by dose curve; further: nearly all actives have a fitted effect of over 15% in size; further: potency means the concentration at half of the fitted maximal effect; on activation: on the % scale 0 is the no-effect control and ±100 the full control effect); settings: HCT-116 p53RE-bla reporter, beta-lactamase FRET ratio, 16 h; activation: at 73.3 µM (top of the series) unless noted
Procedure, shortened: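 HCT-116 cells carrying a stable p53 response element–beta-lactamase reporter were plated, rested 5 h at 37 °C, then exposed to compound in DMSO for 16 h at 37 °C; reporter activity was read as FRET substrate fluorescence after 2 h at room temperature.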

[2] = qHTS assay for small molecule disruptors of the mitochondrial membrane potential (AID 720635); settings: HepG2 mitochondrial membrane potential, Mito-MPS dye ratio; ratio activity, negative = MMP loss: at 83.2 µM (top of the series) unless noted; further: potency means the concentration at half of the fitted maximal effect
Procedure, shortened: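 Mitochondrial membrane potential tracked with Mito-MPS dye, red aggregates (ex 540/em 590 nm) against green monomers (ex 490/em 535 nm). Compound treatment 1 hr at 37C, dye 30 min in HepG2.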

[3] = qHTS assay to identify small molecule antagonists of the androgen receptor (AR) signaling pathway - cell viability counter screen (AID 743033; further: potency means the concentration at half of the fitted maximal effect; nearly all actives have a fitted effect of over 45% in size); settings: AR-bla HEK293 viability, CellTiter-Glo luminescence, 16 h; activity change, negative = cytotoxicity: at 58.5 µM (top of the series) unless noted
[4] = qHTS assay to identify small molecule antagonists of the thyroid receptor (TR) signaling pathway - cell viability counter screen (AID 743064); settings: GH3.TRE-Luc viability, CellTiter-Fluor, 24 h; activity change, negative = cytotoxic: at 70.3 µM (top of the series) unless noted; further: potency means the concentration at half of the fitted maximal effect; nearly all actives have a fitted effect of over 50% in size
Procedure, shortened: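 GH3.TRE-Luc rat pituitary cells carrying a TRE-luciferase reporter were treated with compound plus 1 nM T3 (final) for 23.5 h at 37 °C. Viability was then read in the same wells by CellTiter-Fluor fluorescence after a further 30 min.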

[5] = tested on: thyroid hormone receptor (rat, GH3 cells); experiment: qHTS assay to identify small molecule agonists of the thyroid receptor (TR) signaling pathway (AID 743066; calls by dose curve; further: on the % scale 0 is the no-effect control and ±100 the full control effect); settings: GH3.TRE-Luc cells, TR agonist luciferase, 24 h; activation: at 83.9 µM (top of the series) unless noted
[6] = qHTS assay to identify small molecule phospholipidosis (PLD) inducers (AID 1259344; active means well fitted curve in the direction sought with a large enough effect; inconclusive means small, poorly fitted or top-dose-only effect, or another doubt; inactive means no such curve, though single readings can be large; an effect the other way counts as inactive or inconclusive; further: potency means the concentration at half of the fitted maximal effect); settings: HepG2 phospholipidosis, LipidTOX Red imaging, 24 h; PLD induction: at 38.3 µM (top of the series) unless noted
Procedure, shortened: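 Accumulated phospholipid, stained red by LipidTOX during 24 h compound treatment of HepG2 cells at 37 C, is quantified from images as pit number and intensity, normalised per cell using Hoechst-stained nuclei.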

[7] = qHTS assay for identifying genotoxic compounds that show differential cytotoxicity against isogenic chicken DT40 cell lines with known DNA damage response pathways - Rad54/Ku70 mutant cell line (AID 743015); settings: DT40 Rad54/Ku70 mutant viability, CellTiter-Glo, 40 h; activity change, negative = cytotoxicity: at 66.8 µM (top of the series) unless noted; further: potency means the concentration at half of the fitted maximal effect; nearly all actives have a fitted effect of over 60% in size
[8] = qHTS assay to identify small molecule antagonists of the thyroid receptor (TR) signaling pathway (AID 743065); further: potency means the concentration at half of the fitted maximal effect; nearly all actives have a fitted effect of over 55% in size
Procedure, shortened: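 Antagonism measured as loss of luciferase signal in GH3 cells stably carrying a TRE-luciferase reporter, co-treated with compound and T3 (1 nM final) for 23.5 h at 37 C. Viability was read in the same well by CellTiter-Fluor.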

[9] = biological target: Estrogen receptor (Homo sapiens) (UniProt P03372); experiment: qHTS assay to identify small molecule antagonists of the estrogen receptor alpha (ER-alpha) signaling pathway (AID 743069; active means well fitted curve in the direction sought with a large enough effect in the signal ratio in the repeat runs, not every such curve was filed as active; inconclusive means weak or mixed curves, or effect the other way; inactive means no such curve, though single readings can be large or run the other way; the % refers to the signal ratio; further: potency means the concentration at half of the fitted maximal effect); settings: HEK293 ER-alpha-UAS-bla, beta-lactamase ratio, antagonist mode; activity, negative = inhibition: at 69.4 µM (top of the series) unless noted
Procedure, shortened: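 Fluorescence intensity from a beta-lactamase FRET substrate served as the read-out. Cells: HEK293 with stably integrated ER-alpha-UAS-bla reporter. Agonist 17beta-estradiol was co-added with compounds; incubation 18 hr at 37C, substrate 2 hr at room temperature.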

[10] = biological target: Estrogen receptor (Homo sapiens) (UniProt P03372); experiment: qHTS assay to identify small molecule agonists of the estrogen receptor alpha (ER-alpha) signaling pathway using the BG1 cell line (AID 743079); settings: BG1Luc4E2 cells, ERE-luciferase agonist, 22 h; activation: at 70.3 µM (top of the series) unless noted; further: nearly all actives have a fitted effect of over 20% in size; further: potency means the concentration at half of the fitted maximal effect
[11] = biological target: Peroxisome proliferator-activated receptor gamma (Homo sapiens) (UniProt P37231); experiment: qHTS assay to identify small molecule agonists of the peroxisome proliferator-activated receptor gamma (PPARg) signaling pathway (AID 743094; active means well fitted activation curve with a large enough effect in the signal ratio in the repeat runs, not every such curve was filed as active; inconclusive means weak or mixed curves, or effect the other way; inactive means no such curve, though single readings can be large or run the other way; the % refers to the signal ratio; further: on the % scale 0 is the no-effect control and ±100 the full control effect); settings: HEK293H PPARg-UAS-bla, beta-lactamase FRET ratio, 17 h; activation: at 57 µM (top of the series) unless noted
Procedure, shortened: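 Reporter activation was scored by fluorescence of cleaved LiveBLAzer B/G substrate (1 h, room temperature) in PPARg-bla HEK293H cells previously treated 17 h at 37C with DMSO-dissolved compounds.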

[12] = biological target: Glucocorticoid receptor (Homo sapiens) (UniProt P04150); experiment: qHTS assay to identify small molecule antagonists of the glucocorticoid receptor (GR) signaling pathway (AID 720692; active means well fitted inhibition curve with a large enough effect in the signal ratio in the repeat runs, not every such curve was filed as active; inconclusive means weak or mixed curves, or effect the other way; inactive means no such curve, though single readings can be large or run the other way; the % refers to the signal ratio; further: potency means the concentration at half of the fitted maximal effect; on activity change, negative = inhibition: on the % scale 0 is the no-effect control and ±100 the full control effect); settings: GR-bla HeLa, beta-lactamase FRET ratio, dexamethasone-stimulated, 18 h; activity change, negative = inhibition: at 58.5 µM (top of the series) unless noted
Procedure, shortened: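 Quantitative HTS in antagonist format: HeLa cells expressing endogenous GR and a stably integrated GRE-bla reporter, stimulated with 5 nM dexamethasone (final) alongside test compounds for 18 h.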

[13] = qHTS assay for identifying genotoxic compounds that show differential cytotoxicity against isogenic chicken DT40 cell lines with known DNA damage response pathways - wild type cell line (AID 743012); settings: DT40 wild type chicken cells viability, CellTiter-Glo, 40 h; activity change, negative = cytotoxicity: at 68.4 µM (top of the series) unless noted; further: potency means the concentration at half of the fitted maximal effect; nearly all actives have a fitted effect of over 60% in size
Procedure, shortened: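 Luminescent ATP viability signal (CellTiter-Glo, 30 min RT) recorded after wild type DT40 cells were incubated with compounds for 40 h at 37 C/5% CO2.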

[14] = qHTS assay to identify small molecule antagonists of the estrogen receptor alpha (ER-alpha) signaling pathway using the BG1 cell line (AID 743080; calls by dose curve;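 further: BG1 cells stimulated with 17beta-estradiol alongside compound; on the % scale 0 is the no-effect control and ±100 the full control effect; nearly all actives have a fitted effect of over 25% in size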); settings: BG1Luc4E2 ERE-luciferase antagonist mode, luminescence; activity change, negative = inhibition: at 70.3 µM (top of the series) unless noted
Procedure, shortened: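 After 5 days in phenol-red-free 10% charcoal-stripped FBS medium, BG1-Luc-4E2 cells were seeded, left 24 h at 37 C, co-treated with compounds and 17beta-estradiol for 21.5 h, then assayed for viability and luciferase.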

[15] = qHTS assay to identify small molecule antagonists of the estrogen receptor alpha (ER-alpha) signaling pathway using the BG1 cell line - cell viability counter screen (AID 743081); settings: BG1Luc4E2 viability, CellTiter-Fluor, 22 h; activity change, negative = cytotoxicity: at 70.3 µM (top of the series) unless noted;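 further: compound given together with 17beta-estradiol as the ER stimulus; potency means the concentration at half of the fitted maximal effect; nearly all actives have a fitted effect of over 45% in size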
[16] = qHTS assay to identify aromatase inhibitors - cell viability counter screen (AID 743084); settings: MCF-7 aro ERE viability, CellTiter-Fluor, 24 h; activity change, negative = cytotoxicity: at 70.3 µM (top of the series) unless noted;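 further: cells stimulated with testosterone during compound exposure; potency means the concentration at half of the fitted maximal effect; nearly all actives have a fitted effect of over 55% in size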
[17] = qHTS assay to identify small molecule that activate the aryl hydrocarbon receptor (AhR) signaling pathway - cell viability counter screen (AID 743086); further: potency means the concentration at half of the fitted maximal effect; nearly all actives have a fitted effect of over 45% in size
Procedure, shortened: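 Cytotoxicity counter screen: CellTiter-Fluor signal (30 min, 37 C) in 4000 HepG2 cells/well carrying the DRE-luciferase reporter, following 24 h compound exposure at 37 C.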

[18] = qHTS assay to identify small molecule antagonists of the estrogen receptor alpha (ER-alpha) signaling pathway - cell viability counter screen (AID 743074; calls by dose curve; further: potency means the concentration at half of the fitted maximal effect; nearly all actives have a fitted effect of over 45% in size)
[19] = qHTS assay for identifying genotoxic compounds that show differential cytotoxicity against isogenic chicken DT40 cell lines with known DNA damage response pathways - Rev3 mutant cell line (AID 743014); settings: chicken DT40 Rev3-/- viability, CellTiter-Glo, 40 h; activity, negative = cytotoxicity: at 68.4 µM (top of the series) unless noted; further: potency means the concentration at half of the fitted maximal effect; nearly all actives have a fitted effect of over 55% in size
[20] = qHTS assay to identify small molecule antagonists of the androgen receptor (AR) signaling pathway using the MDA cell line - cell viability counter screen (AID 743041); settings: MDA-kb2 viability, CellTiter-Fluor, 16 h, cells co-treated with R1881 androgen agonist; viability change, negative = cytotoxic: at 70.3 µM (top of the series)
Procedure, shortened: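 Using the breast carcinoma line MDA-kb2 AR-luc, test chemicals were co-incubated with R1881 for 16 h; CellTiter-Fluor reagent, added at 15.5 h, provided a fluorescence measure of live cells.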
Tags describe the fitted curve by direction and shape or compound fluorescence and quenching.

Sequence of UniProt P03372 (P03372 whole entry, looked up): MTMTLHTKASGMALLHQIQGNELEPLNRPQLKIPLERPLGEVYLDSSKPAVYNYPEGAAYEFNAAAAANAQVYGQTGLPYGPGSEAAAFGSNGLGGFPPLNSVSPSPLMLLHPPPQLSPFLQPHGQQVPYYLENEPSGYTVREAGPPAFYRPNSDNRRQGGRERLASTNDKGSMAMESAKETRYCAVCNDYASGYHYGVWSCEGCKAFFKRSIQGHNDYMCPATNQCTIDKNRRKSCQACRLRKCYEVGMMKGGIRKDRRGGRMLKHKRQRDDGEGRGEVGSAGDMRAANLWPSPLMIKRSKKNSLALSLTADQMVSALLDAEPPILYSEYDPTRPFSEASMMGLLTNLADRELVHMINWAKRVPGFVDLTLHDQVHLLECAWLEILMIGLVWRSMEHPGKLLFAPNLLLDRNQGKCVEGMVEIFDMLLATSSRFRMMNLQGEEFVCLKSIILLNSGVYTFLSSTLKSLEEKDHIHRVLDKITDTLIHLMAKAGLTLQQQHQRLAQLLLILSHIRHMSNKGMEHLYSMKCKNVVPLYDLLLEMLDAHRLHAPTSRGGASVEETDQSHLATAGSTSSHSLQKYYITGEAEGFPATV
Sequence of UniProt P37231 (P37231 whole entry, looked up): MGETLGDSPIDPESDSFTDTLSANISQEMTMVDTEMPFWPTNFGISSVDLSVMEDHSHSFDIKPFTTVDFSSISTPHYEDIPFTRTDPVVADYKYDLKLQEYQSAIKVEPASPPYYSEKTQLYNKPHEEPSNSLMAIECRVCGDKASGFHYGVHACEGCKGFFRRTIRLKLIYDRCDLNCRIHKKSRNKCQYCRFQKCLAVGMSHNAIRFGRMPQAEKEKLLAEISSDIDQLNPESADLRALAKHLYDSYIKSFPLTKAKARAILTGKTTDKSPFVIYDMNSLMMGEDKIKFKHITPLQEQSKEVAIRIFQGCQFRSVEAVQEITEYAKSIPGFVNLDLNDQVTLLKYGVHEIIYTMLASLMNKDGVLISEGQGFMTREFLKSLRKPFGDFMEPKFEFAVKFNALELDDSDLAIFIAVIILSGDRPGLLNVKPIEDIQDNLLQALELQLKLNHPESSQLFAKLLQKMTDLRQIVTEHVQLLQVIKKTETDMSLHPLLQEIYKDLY
Sequence of UniProt P04150 (P04150 whole entry, looked up): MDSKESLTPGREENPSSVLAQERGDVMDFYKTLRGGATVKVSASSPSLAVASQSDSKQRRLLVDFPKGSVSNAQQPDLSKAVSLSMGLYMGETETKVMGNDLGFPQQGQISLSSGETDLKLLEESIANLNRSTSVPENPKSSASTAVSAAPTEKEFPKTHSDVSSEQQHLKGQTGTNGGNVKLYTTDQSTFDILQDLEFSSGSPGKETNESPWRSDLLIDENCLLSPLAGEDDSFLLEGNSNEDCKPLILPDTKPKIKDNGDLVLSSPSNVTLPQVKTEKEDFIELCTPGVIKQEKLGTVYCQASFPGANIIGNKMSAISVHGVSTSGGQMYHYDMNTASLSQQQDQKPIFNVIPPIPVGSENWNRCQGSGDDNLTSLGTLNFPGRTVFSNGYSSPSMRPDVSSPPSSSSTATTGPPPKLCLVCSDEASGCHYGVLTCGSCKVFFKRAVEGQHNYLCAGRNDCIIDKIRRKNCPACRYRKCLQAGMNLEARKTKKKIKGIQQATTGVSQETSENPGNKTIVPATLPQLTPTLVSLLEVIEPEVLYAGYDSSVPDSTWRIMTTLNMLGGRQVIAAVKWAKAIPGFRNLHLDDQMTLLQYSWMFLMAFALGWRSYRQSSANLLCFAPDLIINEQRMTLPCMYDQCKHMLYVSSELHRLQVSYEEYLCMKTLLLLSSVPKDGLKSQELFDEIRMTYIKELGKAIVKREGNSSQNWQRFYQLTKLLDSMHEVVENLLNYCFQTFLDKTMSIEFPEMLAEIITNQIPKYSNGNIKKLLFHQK

In the case of `OCCN1CCN(CC/C=C2/c3ccccc3Sc3ccc(Cl)cc32)CC1`, the Potency [1] was inconclusive: 10.1 µM [rising, partial curve, poor fit], the Potency [2] was inconclusive: 4.52 µM [activator, full curve] and the Potency [3] was inconclusive: 0.91 µM [cytotoxic, full curve]. For the same molecule, the Potency [4] was active: 10.1 µM, the activation [5] was inconclusive: -7.12% [phenotype inactive] [at 39.4 µM] and the Potency [6] was inconclusive: 8.91 µM [activator, single point].
In the case of `C[C@]12CCC(=O)C[C@@H]1CC[C@@H]1[C@@H]2CC[C@]2(C)C=CC[C@@H]12`, the activation [1] was inconclusive: 3.15%, the Potency [2] was inconclusive: 7.5 µM [inhibitor, full curve, poor fit] and the Potency [7] was inconclusive: 33.5 µM [cytotoxic, single point]. For the same molecule, the Potency [4] was inconclusive: 33.5 µM [cytotoxic, single point], the Potency [8] was inconclusive: 33.5 µM [inhibitor, single point] and the Potency [9] was inconclusive: 10.7 µM [activator, partial curve]. For the same molecule, the Potency [10] was active: 11.9 µM, the Potency [11] was “inactive” and the Potency [6] was inconclusive: 15.8 µM [activator, single point].
For `CC(=O)c1ccc2c(c1)N(CCCN1CCN(CCO)CC1)c1ccccc1S2`, the Potency [1] was “inactive”, the Potency [2] was inconclusive: 13.3 µM [activator, full curve] and the Potency [12] was “inactive”. For the same molecule, the Potency [13] was active: 13.3 µM, the Potency [3] was inconclusive: 23.9 µM [cytotoxic] and the Potency [4] was active: 13.3 µM. The activation [5] was inconclusive: -8.96% [phenotype inactive], the Potency [9] was inconclusive: 23.9 µM and the activation [10] was inconclusive: 16.8% [phenotype inactive]. For the same molecule, the Potency [14] was “inactive”, the Potency [15] was inconclusive: 23.7 µM [cytotoxic, partial curve, poor fit] and the Potency [16] was inconclusive: 26.6 µM [cytotoxic, partial curve, poor fit]. The activation [11] was inconclusive: -14.7% and the Potency [6] was inconclusive: 17.8 µM [activator, single point].
For `CN1CCC(CN2c3ccccc3Sc3ccccc32)C1` (stereo not drawn), the Potency [1] was inconclusive: 3.76 µM [fluorescent, full curve], the Potency [2] was inconclusive: 4.22 µM [activator] and the Potency [4] was active: 10.6 µM. The activation [5] was inconclusive: -9.83% [phenotype inactive], the Potency [9] was inconclusive: 23.9 µM and the Potency [17] was inconclusive: 29.8 µM [falling, single point]. The activation [11] was inconclusive: -12.8% and the Potency [6] was inconclusive: 28.2 µM [activator, single point].
With `CC(C)C[C@H](NC(=O)[C@@H](Cc1c[nH]c2ccccc12)NC(=O)[C@H](Cc1ccc(O)cc1)NC(=O)[C@H](CO)NC(=O)[C@H](Cc1c[nH]c2ccccc12)NC(=O)[C@H](Cc1cnc[nH]1)NC(=O)[C@@H]1CCC(=O)N1)C(=O)N[C@@H](CCCN=C(N)N)C(=O)N1CCC[C@@H]1C(=O)NCC(N)=O` the Potency [1] was “inactive”, the ratio activity, negative = MMP loss [2] was inconclusive: 8% and the Potency [12] was “inactive”. For the same molecule, the Potency [6] was “inactive”.
For `Cc1cc(/C=C/c2ccc3cc(N(C)C)ccc3[n+]2C)c(C)n1-c1ccccc1`, the Potency [1] was active: 9.02 µM, the Potency [12] was inconclusive: 0.362 µM [activator, partial curve] and the activation [5] was inconclusive: -8.97% [phenotype inactive] [at 39.4 µM]. For the same molecule, the Potency [18] was inconclusive: 0.323 µM [cytotoxic, full curve], the Potency [15] was active: 11.4 µM and the Potency [17] was inconclusive: 7.17 µM [falling, full curve]. The Potency [6] was inconclusive: 11.2 µM [activator, partial curve, poor fit].
For `CN1CCCC(CN2c3ccccc3Sc3ccccc32)C1` (stereo not drawn), the Potency [2] was inconclusive: 11.9 µM [activator], the Potency [19] was active: 8.41 µM and the Potency [20] was inconclusive: 29.8 µM [cytotoxic, single point]. The activation [5] was inconclusive: -7.06% [phenotype inactive], the Potency [14] was “inactive” and the Potency [6] was inconclusive: 20 µM [activator, single point].
For `CCOC(=O)C1=C(COCCN)NC(C)=C(C(=O)OC)C1c1ccccc1Cl` (stereo not drawn), the Potency [2] was inconclusive: 29.8 µM [activator] and inconclusive: 6.68 µM [activator, full curve], the Potency [12] was inconclusive: 12 µM [fluorescent, partial curve, poor fit] and the Potency [13] was inconclusive: 33.5 µM [cytotoxic, single point] and active: 7.5 µM. For the same molecule, the Potency [19] was inconclusive: 33.5 µM [cytotoxic, single point], the Potency [7] was inconclusive: 33.5 µM [cytotoxic, single point] and the Potency [3] was inconclusive: 19 µM [cytotoxic, partial curve]. The Potency [20] was inconclusive: 23.7 µM [cytotoxic, partial curve], the Potency [16] was inconclusive: 29.8 µM [cytotoxic, single point] and the Potency [6] was inconclusive: 14.1 µM [activator, single point].
